# How the values were obtained:
# Type in all cases: cell-based, human
# [1] = test system: Firefly Luciferase reporter gene driven by the C3P3-G1 system in HEK-293 cells
# [2] = test system: Firefly Luciferase reporter gene, conventional nuclear expression (pCMVScript-Luciferase) in HEK-293 cells
# [3] = test system: Firefly Luciferase reporter gene driven by the C3P3-G2 system in HEK-293 cells
smiles,measurement,setting,value
O=C1Nc2ccc3ncsc3c2/C1=C/c1cnc[nH]1 [CAS 608512-97-6],Effect on Firefly Luciferase expression (in words),[1],dose-dependent increase
same,Effect on Firefly Luciferase expression (in words),[2],no detectable effect
same,Effect on Firefly Luciferase expression (in words),[3],dose-dependent increase

# Reference: patent publication US20230265479A1 (priority 2020, published 2023)
